The other results are listed elsewhere or left out. Values were computed here from the reads of four pooled replicates and scatter widely.
Target: T1, Pho4 (S. cerevisiae) (UniProt P07270)
T1 sequence: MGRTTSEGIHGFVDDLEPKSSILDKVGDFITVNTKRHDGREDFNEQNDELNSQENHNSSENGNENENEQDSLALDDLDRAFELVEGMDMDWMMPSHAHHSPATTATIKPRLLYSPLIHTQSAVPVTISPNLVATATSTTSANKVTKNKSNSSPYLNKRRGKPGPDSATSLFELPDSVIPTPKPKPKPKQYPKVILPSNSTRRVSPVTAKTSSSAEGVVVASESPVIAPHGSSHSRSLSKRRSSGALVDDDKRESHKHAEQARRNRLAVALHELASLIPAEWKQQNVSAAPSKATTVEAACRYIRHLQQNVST
Experiment: relative binding free energy (BET-seq); higher = weaker binding
Conditions: reference: library average

Sequence	relative binding free energy
TTTCGCACGTGGGGAG	-0.08 kcal/mol
TCTGTCACGTGGGTAC	-0.01 kcal/mol
GTCTGCACGTGGTATT	-0.03 kcal/mol
CTGGGCACGTGGAGGC	-0.15 kcal/mol
GTGCCCACGTGTTTGG	-0.11 kcal/mol
AGAGGCACGTGAGGTA	0.17 kcal/mol
GGTGTCACGTGTTTTC	0.21 kcal/mol
GGTCTCACGTGTGTGC	0.28 kcal/mol
TGATGCACGTGTATGA	-0.04 kcal/mol
GTTGTCACGTGTGCGT	0.08 kcal/mol
AGTTGCACGTGAAAGT	0.19 kcal/mol
TAATTCACGTGAGGTT	0.4 kcal/mol
TAAGGCACGTGCGATA	-0.04 kcal/mol
GGGTTCACGTGAGGTG	0.55 kcal/mol
ATGATCACGTGATATA	0.33 kcal/mol
CGGGCCACGTGGTGCA	-0.07 kcal/mol
AGAGGCACGTGTTGAG	-0.02 kcal/mol
CTTAGCACGTGGAAGG	0.07 kcal/mol
ATGCCCACGTGGTGTT	-0.19 kcal/mol
GTGTTCACGTGATGAA	0.33 kcal/mol
GGTTGCACGTGTGGTT	0.24 kcal/mol
TATGTCACGTGTACAG	0.17 kcal/mol
GGGGTCACGTGCGTTC	0.15 kcal/mol
ATAGCCACGTGGGGAG	-0.31 kcal/mol
GGATGCACGTGGTGGT	0.05 kcal/mol

Sequence	relative binding free energy
ATGGTCACGTGGACAG	0.23 kcal/mol
GTAGGCACGTGCGAAG	-0.09 kcal/mol
TTTTGCACGTGATTTG	0.06 kcal/mol
CGATTCACGTGGTTTT	0.38 kcal/mol
GCGGGCACGTGGAGGC	-0.09 kcal/mol
AGTAGCACGTGAGATT	0.24 kcal/mol
ATTTGCACGTGGTCAA	-0.15 kcal/mol
AGTTGCACGTGTGATG	0.17 kcal/mol
GTAGTCACGTGGAGCG	0.12 kcal/mol
TGTTGCACGTGGTTGG	0 kcal/mol
AAAGTCACGTGTCATG	0.21 kcal/mol
TATCGCACGTGTGGGC	-0.03 kcal/mol
TCAATCACGTGGCGTG	0.14 kcal/mol
GTATGCACGTGTACGG	0.04 kcal/mol
GAATTCACGTGGTTGC	0.38 kcal/mol
TGTTACACGTGTGTAG	0.17 kcal/mol
GTGGACACGTGGTTGT	-0.01 kcal/mol
CGCGTCACGTGGTTGA	-0.01 kcal/mol
AAGGTCACGTGGAGTG	0.23 kcal/mol
TGTACCACGTGGTTGG	-0.28 kcal/mol
ATAGTCACGTGAGTTG	0.31 kcal/mol
AGATGCACGTGGGACT	-0.13 kcal/mol
GGTGCCACGTGGATAG	-0.16 kcal/mol
GAGTACACGTGACGGG	0.48 kcal/mol
CGATACACGTGTGGTA	0.14 kcal/mol

Sequence	relative binding free energy
TGGTACACGTGTTTAG	0.15 kcal/mol
TGTACCACGTGTGTAA	-0.02 kcal/mol
GGTTGCACGTGTAGTC	0.06 kcal/mol
GAATGCACGTGAGGTC	0.23 kcal/mol
TGGCTCACGTGGTGGC	0.13 kcal/mol
TGTGACACGTGACTTG	0.13 kcal/mol
TGGGACACGTGGTTTT	0.2 kcal/mol
TAATTCACGTGTCGGA	0.33 kcal/mol
AATCTCACGTGGGGAT	0.2 kcal/mol
CTGTGCACGTGCTGGT	-0.18 kcal/mol
GGCTGCACGTGTGGTC	0.08 kcal/mol
CATTGCACGTGGAGAG	0 kcal/mol
TTTCACACGTGTAGGT	0.1 kcal/mol
GATATCACGTGTTATT	0.15 kcal/mol
TCAGTCACGTGGAGAT	0.18 kcal/mol
TTCAGCACGTGTTTGC	-0.02 kcal/mol
GGTTACACGTGGTTGG	0.07 kcal/mol
TGTTTCACGTGTATCT	0.3 kcal/mol
TGTTACACGTGTTGAC	0.12 kcal/mol
GTTGACACGTGCGTGC	-0.09 kcal/mol
AGTGGCACGTGTGCAA	-0.2 kcal/mol
GCGTTCACGTGATTTT	0.27 kcal/mol
TAACGCACGTGGTAGG	-0.25 kcal/mol
TGAGCCACGTGGTTTG	-0.08 kcal/mol
GTGGCCACGTGTGGGT	0.01 kcal/mol

Sequence	relative binding free energy
TATCGCACGTGATTGG	0.03 kcal/mol
AGCTTCACGTGTTTTG	0.24 kcal/mol
TTGTTCACGTGCGCAG	0.18 kcal/mol
GTGTGCACGTGGCTTG	-0.04 kcal/mol
GAAATCACGTGTGGAG	0.18 kcal/mol
CTTTTCACGTGTGGAT	0.28 kcal/mol
ATGGTCACGTGCAGGT	0.13 kcal/mol
TAGGACACGTGGGGAC	-0.12 kcal/mol
GGGAGCACGTGACGGC	0.3 kcal/mol
TGTATCACGTGGTGCT	0.02 kcal/mol
TGATGCACGTGGCTTT	-0.17 kcal/mol
TGTGGCACGTGGTACA	-0.25 kcal/mol
TTCTCCACGTGGTGGT	-0.11 kcal/mol
TAGAGCACGTGATGAT	0.15 kcal/mol
ATTTACACGTGGAGGA	0.07 kcal/mol
TGGTACACGTGTGGAA	0.1 kcal/mol
TATCGCACGTGAGGGG	0.14 kcal/mol
TTTTACACGTGTGGCA	0.23 kcal/mol
GGGTGCACGTGGCCGG	-0.11 kcal/mol
TATGACACGTGAATAT	0.23 kcal/mol
CGGGACACGTGTGTAT	0.01 kcal/mol
CTTTGCACGTGACTTG	0.16 kcal/mol
GTTAACACGTGACGGT	0.11 kcal/mol
GTCTGCACGTGTGAGT	0.1 kcal/mol
TTTGCCACGTGGGAGG	-0.09 kcal/mol

Sequence	relative binding free energy
GCGTACACGTGTGATG	0.31 kcal/mol
TTTTACACGTGTTGGA	0.06 kcal/mol
GGGTCCACGTGGTGGG	-0.11 kcal/mol
TGTGGCACGTGGGTCA	-0.29 kcal/mol
CTTTACACGTGGGTTC	0.11 kcal/mol
AGTGGCACGTGGCTTG	-0.2 kcal/mol
GGAGGCACGTGGCAGA	-0.21 kcal/mol
CTATGCACGTGTGTAT	0 kcal/mol
AGAATCACGTGCGGGG	0.2 kcal/mol
TGCGTCACGTGAAGTA	0.19 kcal/mol
TTAAACACGTGGGTTC	-0.07 kcal/mol
GGGGTCACGTGTTTAT	0.22 kcal/mol
TCTTGCACGTGGGTTA	-0.04 kcal/mol
ATGGTCACGTGAGAGC	0.21 kcal/mol
CGTGTCACGTGTGTCA	0.2 kcal/mol
TGGGCCACGTGGATTG	-0.14 kcal/mol
GTTCACACGTGAGTGT	0.24 kcal/mol
ATGCGCACGTGCGTTT	-0.11 kcal/mol
TGAGGCACGTGGTTAG	-0.24 kcal/mol
TGTTGCACGTGTTCGC	-0.1 kcal/mol
TTTTTCACGTGGTCTA	0.2 kcal/mol
GTATTCACGTGGCGTG	0.26 kcal/mol
CTTATCACGTGGCGTG	0.04 kcal/mol
ATTTGCACGTGGGAAC	0.03 kcal/mol
TGCATCACGTGGATTG	0.09 kcal/mol

Sequence	relative binding free energy
TTAGGCACGTGATTAA	-0.15 kcal/mol
CGTGGCACGTGGTTCT	-0.21 kcal/mol
AAGATCACGTGTGTTG	0.1 kcal/mol
TAGTTCACGTGGGGCA	0.15 kcal/mol
TTATTCACGTGCGGTT	0.24 kcal/mol
CTATGCACGTGCAGTG	-0.01 kcal/mol
TTGGACACGTGGGGGA	-0.15 kcal/mol
TCTTTCACGTGCGTGT	0.12 kcal/mol
TATATCACGTGTAGGG	0.2 kcal/mol
CGTAGCACGTGATTTG	0.08 kcal/mol
TTGCGCACGTGTCGTG	-0.01 kcal/mol
CTGGACACGTGTTGAG	0.07 kcal/mol
TTATTCACGTGGCGGA	0.18 kcal/mol
CGATTCACGTGATGTT	0.4 kcal/mol
TGGTTCACGTGGGAAA	0.08 kcal/mol
ATATTCACGTGATTGC	0.31 kcal/mol
CCTTGCACGTGTAGGG	0.06 kcal/mol
TGAGTCACGTGTCGGG	0.18 kcal/mol
GATGGCACGTGGGCTG	-0.19 kcal/mol
GTTTGCACGTGATAAG	0.26 kcal/mol
TCTTGCACGTGATGTA	0.14 kcal/mol

Source: the BET-seq Pho4 binding data (Le et al. 2018)
